B1: TfR2: antibody that binds to the transferrin receptor with reduced affinity (protein)
light: QIVLTQSPAIMSASPGEKVTVTCSASSSIRYMHWYQQKPGTSPKRWIYDTSELASGVPARFSGSGSGTSYSLTINSMEAEDAATYYCHQRSSYPFTFGGGTKLEIKRTVAAPSVFIFPPSDEQLKSGTASVVCLLNNFYPREAKVQWKVDNALQSGNSQESVTEQDSKDSTYSLSSTLTLSKADYEKHKVYACEVTHQGLSSPVTKSFNRGEC
heavy: EVQLQQSGPELVKPGASVKMSCKASGYTFTSYVMHWVKQKPGQGLEWIGYVNPYNDDTKYNEKFRGKATLTSDKSSSTAYMELSSLTSEDSAVYYCARSYYYYSMDNWGQGTSVTVSS[skipping human IgG1 constant region]GGGGSGGGGSQVQLVESGGGLVKPGGSLRLSCAASGFTFSDYAMSWIRQAPGKCLEWVSSINIGATYIYYADSVKGRFTISRDNAKNSLYLQMNSLRAEDTAVYYCARPGSPYEYDKAYYSMAYWGQGTTVTVSSGGGGSGGGGSGGGGSDIQMTQSPSSLSASVGDRVTITCRASQDIKNYLNWYQQKPGKAPKLLIYYSSTLLSGVPSRFSGSGSGTDFTLTISSLQPEDFATYYCQQSITLPPTFGCGTKVEIK
modifications: LC anti-TfR2 antibody; HC anti-TfR2 antibody conjugated to scFv anti- digoxigenin antibody fragment
B2: TfR2-Bio (protein)
light: QIVLTQSPAIMSASPGEKVTVTCSASSSIRYMHWYQQKPGTSPKRWIYDTSELASGVPARFSGSGSGTSYSLTINSMEAEDAATYYCHQRSSYPFTFGGGTKLEIKRTVAAPSVFIFPPSDEQLKSGTASVVCLLNNFYPREAKVQWKVDNALQSGNSQESVTEQDSKDSTYSLSSTLTLSKADYEKHKVYACEVTHQGLSSPVTKSFNRGEC
heavy: EVQLQQSGPELVKPGASVKMSCKASGYTFTSYVMHWVKQKPGQGLEWIGYVNPYNDDTKYNEKFRGKATLTSDKSSSTAYMELSSLTSEDSAVYYCARSYYYYSMDNWGQGTSVTVSS[skipping human IgG1 constant region]GGGGSGGGGSDIQMTQSPSSLSASVGDRVTITCRASGNIHNYLSWYQQKPGKVPKLLIYSAKTLADGVPSRFSGSGSGTDFTLTISSLQPEDVATYYCQHFWSSIYTFGCGTKLEIKRGGGGSGGGGSGGGGSGGGGSQVQLVQSGAEVKKPGSSVKVSCKSSGFNNKDTFFQWVRQAPGQCLEWMGRIDPANGFTKYAQKFQGRVTITADTSTSTAYMELSSLRSEDTAVYYCARWDTYGAAWFAYWGQGTLVTVSS
B3: TfR2-Dig: digoxigenylated payload binding shuttle module, reduced affinity TfR, SEQ ID NO: 196 and 197 (protein)
light: QIVLTQSPAIMSASPGEKVTVTCSASSSIRYMHWYQQKPGTSPKRWIYDTSELASGVPARFSGSGSGTSYSLTINSMEAEDAATYYCHQRSSYPFTFGGGTKLEIKRTVAAPSVFIFPPSDEQLKSGTASVVCLLNNFYPREAKVQWKVDNALQSGNSQESVTEQDSKDSTYSLSSTLTLSKADYEKHKVYACEVTHQGLSSPVTKSFNRGEC
heavy: EVQLQQSGPELVKPGASVKMSCKASGYTFTSYVMHWVKQKPGQGLEWIGYVNPYNDDTKYNEKFRGKATLTSDKSSSTAYMELSSLTSEDSAVYYCARSYYYYSMDNWGQGTSVTVSS[skipping human IgG1 constant region]GGGGSGGGGSQVQLVESGGGLVKPGGSLRLSCAASGFTFSDYAMSWIRQAPGKCLEWVSSINIGATYIYYADSVKGRFTISRDNAKNSLYLQMNSLRAEDTAVYYCARPGSPYEYDKAYYSMAYWGQGTTVTVSSGGGGSGGGGSGGGGSDIQMTQSPSSLSASVGDRVTITCRASQDIKNYLNWYQQKPGKAPKLLIYYSSTLLSGVPSRFSGSGSGTDFTLTISSLQPEDFATYYCQQSITLPPTFGCGTKVEIK
modifications: digoxigenylated payload; LC anti-TfR2 antibody; HC anti-TfR2 antibody conjugated to scFv anti- digoxigenin antibody fragment

Tested on: brain endothelial cells (hCMEC/D3)
Assay: Transwell assay of cell binding, transcytosis and release of shuttle modules (IgG ELISA)
Type: cell-based, human
Settings: incubated apically 1 h at 37° C., antibody quantified by IgG ELISA over time
Excerpt: We used brain endothelial cells (hCMEC/D3) to investigate cell binding and transcytosis of the shuttle modules as reported herein. Previous studies (Crepin et al., 2010; Lesley et al., 1989, WO 2012/075037, WO 2014/033074) reported that valency and affinity of TfR binding antibodies influence efficacy of binding to, transcytosis though, and release from endothelial cells of the blood brain barrier. To investigate cell binding and transcytosis in hCMEC/D3, hCMEC/D3 cells cultured on filter inserts were incubated apically with the bispecific antibody or parent antibody (without hapten-binding scFvs as controls) for 1 h at 37° C. Cell monolayers were washed at RT in serum-free medium apically (400 μl) and basolaterally (1600 μl) three times for 3-5 min. each. All wash volumes were collected to monitor efficiency of removal of the unbound ligand or antibody. Pre-warmed medium was added to the apical chamber and the filters transferred to a fresh 12 well plate (blocked overnight with PBS containing 1% BSA) containing 1600 μl pre-warmed medium. At this point, cells on some of the filters were lysed in 500 μl RIPA buffer (Sigma, Munich, Germany, # R0278) in order to determine specific uptakes. The remaining filters were incubated at 37° C., and samples of cells and of basolateral and apical media were collected at various time points to determine apical and/or basolateral release. The content of antibody in the samples was quantified using a highly sensitive IgG ELISA.

How did the “binding to cells and release to apical or basolateral compartments” value (“binding to cells and release” below) turn out when B1 was run?
The value was “efficiently bound to the cells, and become subsequently released over time to apical or basolateral compartments”.

With B2 as the molecule, how does the “binding to cells and release” value read?
The value was “efficiently bound to the cells and are released to apical or basolateral compartments to the same degree as the parent antibody”.

With B3 as the molecule, how does the “binding to cells and release” value read?
Its value is “efficiently bound to the cells and are released to apical or basolateral compartments to the same degree as the parent antibody”.

From patent US10806795B2, “Bispecific anti-hapten/anti-blood brain barrier receptor antibodies, complexes thereof and their use as blood brain barrier shuttles” (Hoffmann-La Roche Inc., priority 2014, dated 2020)
